Sequences and labels used below:
B1: CPEB3 Ribozyme (parent)
chain: UAACAGGGGGCCACAGCAGAAGCGUUCACGUCGCAGCCCCUGUCAGAUUCUGGUGAAUCUGCGAAUUCUGCUGUAUAUCUC

Read counts are not given, so values of variants with three or more changes are uncertain.

Variants of B1 are the subject of the series. The series is described as follows: self-cleavage, relative activity (ratio to wild type); higher = more cleavage; in vitro, sequencing. Put shortly: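 After error-prone PCR and barcoding, CPEB3 ribozyme mutant libraries were transcribed with T7 RNA polymerase at 37°C for 5 hours, then given 15 min with DNase I before an EDTA stop, and they cleaved during both steps. Reverse transcription with template switching preceded Illumina sequencing. Relative activity divides a variant's cleaved/total read fraction by the unmutated ribozyme's. At least 5 reads were required per variant, and three batches were averaged.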
As for C29U U41A U66C U67A, the self-cleavage is 0.13.

On to U31A A57G A64G, for which the self-cleavage came to 0.3.

On to U31C A35U U49A U78C, for which the self-cleavage was determined as 0.08.

For G30U G52C U54A A64U U69C, the self-cleavage amounted to 0.14.

On to U31C A64G U74C U80C, for which the self-cleavage was determined as 0.68.

As for C29A U69G U74A, the self-cleavage is 0.26.

Consider G30A C68U U80C, for which the self-cleavage was determined as 0.15.

On to U31A U49C A65G U69C U72A, for which the self-cleavage turned out to be 0.06.

Take G30U U41C U49C G70A: the self-cleavage was found to be 0.34.

As for U31A U51A U72C, the self-cleavage amounted to 0.7.

For U31A A45G U67A U69A, the self-cleavage turned out to be 0.23.

With U31A A57G U69A U80C, the self-cleavage turned out to be 0.09.

In the case of G30C U49C U58C A65G U76A, the self-cleavage was found to be 0.11.

Take G30A U43C U78C U80C: the self-cleavage amounted to 0.16.

Regarding U31A A64G U78C, the self-cleavage was 0.29.

For the variant U31C A47G U48C, the self-cleavage was 0.41.

Turning to U31A G53A G70A U72A, the self-cleavage turned out to be 0.12.

Consider C29U U49C U78C U80A, for which the self-cleavage was 0.1.

As for C29U U49A U51A U60C U72C U74A U76C, the self-cleavage was determined as 0.07.

For the variant U31A U69C U72A, the self-cleavage amounted to 0.11.

In the case of C29U U41C U51C, the self-cleavage came out at 0.4.

Regarding G30A A47U U72G A77G, the self-cleavage turned out to be 0.1.

In the case of U31A A57U G70C, the self-cleavage amounted to 0.12.

Turning to G30U A35C U72C U74A, the self-cleavage was 0.05.

With U31A G33A U66A C79U, the self-cleavage was 0.09.

Take G30A C40A G52C A65G: the self-cleavage amounted to 0.12.

U31C A64G U69A: the self-cleavage was determined as 0.12.

Turning to G30C U48C A64G A65C, the self-cleavage came to 0.12.

Take C29G U41G A56G: the self-cleavage is 0.48.

With G30C A35G A45U U49C U58A, the self-cleavage was 0.14.

G30A A57G C59A: the self-cleavage worked out at 0.18.

Turning to G30U A64C U76C, the self-cleavage came to 0.08.

In the case of C29U G33A U54C, the self-cleavage stood at 0.16.

With U31A U58C U60C U72C, the self-cleavage was found to be 0.13.

Consider U31C A45G A47G, for which the self-cleavage was found to be 0.21.

For G30A C34G U51G, the self-cleavage amounted to 0.17.

As for U31A U43A A47G A56G, the self-cleavage stood at 0.39.

U31A U41C U69G U80C: the self-cleavage stood at 0.28.

For U31A U48A U58C U67A, the self-cleavage came out at 0.1.

Consider G30A C62A U67C U69C, for which the self-cleavage was determined as 0.07.

For C29U G33U U43A, the self-cleavage was found to be 0.1.

As for U31A U67C U72C U80C, the self-cleavage turned out to be 0.15.

On to C29U A35U U51C U78C, for which the self-cleavage was 0.11.

For the variant U31A U60C U78C, the self-cleavage is 0.14.

Regarding U31C A45C A56G U58C, the self-cleavage stood at 0.2.

For the variant U31C A64G U78A, the self-cleavage amounted to 0.73.

Take U31A A47G U78C: the self-cleavage turned out to be 0.51.

As for C29U U51C G61U U72A, the self-cleavage worked out at 0.12.

Take C29U C38U U72G: the self-cleavage came out at 0.41.

As to G30A U41C U60C, the self-cleavage worked out at 0.21.

Consider U31C A65G G73A U80G, for which the self-cleavage worked out at 0.69.

As to U31A A47G U49A, the self-cleavage turned out to be 0.15.

Take U31A U43C U67C A75U: the self-cleavage turned out to be 0.1.

On to C29U U43C U51A U66C U74C, for which the self-cleavage was determined as 0.11.

Turning to C29U U31A A64G, the self-cleavage stood at 0.13.

Take G30A U60G U69A: the self-cleavage was determined as 0.07.

C29U U60C U72G: the self-cleavage was determined as 0.04.

As to U31C A45C U60C, the self-cleavage came out at 0.32.

With C29U U51A A65G, the self-cleavage stood at 0.13.

On to C29U A35U U51C, for which the self-cleavage is 0.4.

For the variant C29G A45U U67C U69C, the self-cleavage was 0.15.

Consider C29G U31A C40U U41G A47G U48C, for which the self-cleavage is 0.21.

In the case of G30U A45U U60C, the self-cleavage worked out at 0.09.

Take G30A U43C A45G U58A: the self-cleavage was found to be 0.16.

With U31A A47U U67C U78C, the self-cleavage turned out to be 0.33.

Take U31A A35G U43C U72A: the self-cleavage came to 0.9.

On to G30A U60A A64G, for which the self-cleavage amounted to 0.2.

As to U31A A35U U48C U49C U78C, the self-cleavage was found to be 0.12.

Take C29U U41C U43C U66C C71U C81A: the self-cleavage turned out to be 0.11.

As for G30U C62U U76C, the self-cleavage came to 0.08.

For the variant U31A U41A U43C, the self-cleavage was determined as 0.1.

U31A A65G U72C C79U: the self-cleavage worked out at 0.1.

In the case of U31A U41A U60A U72C U80C, the self-cleavage stood at 0.2.

G30A U41C U69G: the self-cleavage was determined as 0.13.

Regarding C29U A35G U41C, the self-cleavage turned out to be 1.01.

C29U U41C A57U U58A: the self-cleavage is 0.13.

C29G U31C A64U A65U U80C: the self-cleavage amounted to 0.07.

Take C29U A35U U51A A64U: the self-cleavage amounted to 0.24.

For the variant C29U U41C U54C, the self-cleavage worked out at 0.53.

For U31A C34U U48A U49G, the self-cleavage was determined as 0.1.

Turning to U31A U43C U72C, the self-cleavage amounted to 0.42.

With G30U U41A C62U U69A, the self-cleavage worked out at 0.13.

With C29U A56U U60A U72G, the self-cleavage came to 0.1.

Consider C29U A35G U54A, for which the self-cleavage was 1.2.
